# Measured values published in publication PMC4336329 (PLoS ONE, 2015).
# The campaign covered roughly 310,000 compounds. About 14,000 (4.5%) showed an effect of 50% or more. The effect is printed as a negative number. The list shows a part of the results.
# Target: human ether-à-go-go-related gene (hERG) potassium channel (human, UniProt Q12809)
# Assay: primary screen, population patch clamp on CHO cells stably expressing hERG
# 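Also: peak tail current of the secondary pulse compared with the same well before compound.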
# Sequence of human ether-à-go-go-related gene (hERG) potassium channel (Q12809 whole entry, looked up): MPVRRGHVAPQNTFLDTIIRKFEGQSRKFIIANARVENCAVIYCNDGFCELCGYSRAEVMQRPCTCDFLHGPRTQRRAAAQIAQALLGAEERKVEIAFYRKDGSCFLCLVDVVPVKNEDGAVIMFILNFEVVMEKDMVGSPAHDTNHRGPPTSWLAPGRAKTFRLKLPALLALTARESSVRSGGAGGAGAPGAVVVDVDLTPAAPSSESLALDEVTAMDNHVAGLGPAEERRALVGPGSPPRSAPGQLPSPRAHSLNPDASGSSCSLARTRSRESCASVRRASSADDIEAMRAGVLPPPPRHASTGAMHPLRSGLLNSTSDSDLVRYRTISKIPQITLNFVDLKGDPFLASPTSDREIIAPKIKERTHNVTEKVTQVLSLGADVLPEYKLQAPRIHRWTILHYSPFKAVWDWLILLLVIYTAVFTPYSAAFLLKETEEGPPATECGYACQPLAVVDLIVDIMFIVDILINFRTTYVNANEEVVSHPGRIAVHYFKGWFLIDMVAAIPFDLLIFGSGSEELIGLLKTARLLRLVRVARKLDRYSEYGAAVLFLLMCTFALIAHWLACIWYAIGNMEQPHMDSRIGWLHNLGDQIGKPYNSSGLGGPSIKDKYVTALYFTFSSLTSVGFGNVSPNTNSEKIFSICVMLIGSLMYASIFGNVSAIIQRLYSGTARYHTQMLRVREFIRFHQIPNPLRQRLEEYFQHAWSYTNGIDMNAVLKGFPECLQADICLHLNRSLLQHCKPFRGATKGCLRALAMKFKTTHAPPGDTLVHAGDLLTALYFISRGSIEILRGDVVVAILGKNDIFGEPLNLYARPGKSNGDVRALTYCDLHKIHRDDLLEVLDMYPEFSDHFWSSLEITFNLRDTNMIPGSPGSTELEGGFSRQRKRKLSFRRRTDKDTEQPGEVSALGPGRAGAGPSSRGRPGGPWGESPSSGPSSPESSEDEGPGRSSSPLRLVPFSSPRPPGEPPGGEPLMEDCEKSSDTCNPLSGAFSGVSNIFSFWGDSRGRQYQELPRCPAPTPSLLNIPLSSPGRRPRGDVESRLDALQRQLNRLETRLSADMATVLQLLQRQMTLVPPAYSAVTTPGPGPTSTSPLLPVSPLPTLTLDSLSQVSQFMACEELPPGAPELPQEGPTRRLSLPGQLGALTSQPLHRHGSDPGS
row,Structure (SMILES),"hERG current change (%, negative = inhibition) at 10uM"
1,CCC(C)n1ncn(-c2ccc(N3CCN(c4ccc(OCC5COC(Cn6cncn6)(c6ccc(Cl)cc6Cl)O5)cc4)CC3)cc2)c1=O (centres unmarked),21.2%
2,O=C(O)CCC(=O)Nc1nc2nccc(-c3ccccc3)n2n1,0.28%
3,O=C(c1cc(C(=O)N2CCN(c3ccc(F)cc3)CC2)cc([N+](=O)[O-])c1)N1CCN(c2ccc(F)cc2)CC1,-26.2%
4,O=C(O)c1cc(NS(=O)(=O)c2ccc(N3CCCCC3)c([N+](=O)[O-])c2)cc(C(=O)O)c1,-1.82%
5,Cc1ccc(-c2onc3ccc(C=O)cc23)cc1,-8.19%
6,Cc1ccc(N2CC(C(=O)Nc3ccccn3)CC2=O)cc1 (centres unmarked),-10.7%
7,CC(NC(=O)c1ccccc1)c1nnc(SCC(=O)Nc2nnc(C3CC3)s2)n1C (centres unmarked),2.96%
8,Cc1ccc(-c2csc(/C(C#N)=C/Nc3ccccc3SC(F)(F)F)n2)cc1,26.5%
9,Cc1ccc(F)cc1CNC(=O)C1CCC(=O)N(CCCN2CCCC2=O)C1 (centres unmarked),14.6%
10,CCn1c(SCC(=O)Nc2ccc(C)cc2)nnc1-c1cnccn1,-31.8%
11,COc1ccc(NC(=O)c2cc(S(=O)(=O)N3CCCCC3)c[nH]2)cc1Cl,-0.251%
12,Cc1ccc(/C=N/NC(=O)COc2ccccc2-c2ccccc2)cc1,-3.49%
13,CCOCCOC(=O)C1=C(C)NC2=C(C(=O)CC(c3cccs3)C2)C1c1ccsc1 (centres unmarked),4.4%
14,Cc1cc(O)c2/c(=N\N)c(-c3csc(C)n3)coc2c1,4.24%
15,Cn1cccc1-c1nc2ccc(NC(=O)c3cccs3)cc2[nH]1,-53.3%
16,CCOC(=O)N1CCN(C(=S)NC(=O)c2nn(C)cc2Br)CC1,22.1%
17,O=C(Nc1ccc(F)cc1)c1cccc2c1C(=O)N(CC1CCCO1)C2 (centres unmarked),-45.4%
18,CN1CCN(S(=O)(=O)c2ccc(N(C)Cc3cccs3)nc2)CC1,-11.7%
19,Cc1cccc(NC(=O)CCN2C(=O)C3C4C=CC(C4)C3C2=O)n1 (centres unmarked),5.71%
20,Cc1ccc(C)c(OCCC(=O)OCC(=O)NC2CCCC2)c1,-2.45%
21,CC(Sc1nnc2c(n1)[nH]c1ccccc12)C(=O)N(C)C1CCCCC1 (centres unmarked),-29.1%
22,CCCc1nn2c(=O)cc(CSCC(=O)Nc3ccc(C)cc3)nc2s1,3.95%
23,Cc1ccc(S(=O)(=O)NC(=O)c2cc(C)n(CC(c3ccccc3)N(C)C)c2C)cc1 (centres unmarked),-1.14%

row,Structure (SMILES),"hERG current change (%, negative = inhibition) at 10uM"
1,N#Cc1cc2ccccc2nc1SCc1cccnc1,-5.37%
2,CC(=O)Nc1sc(N/N=C/c2ccccc2)nc1-c1ccc(C)cc1,15.9%
3,Cc1ccc(CS(=O)Cc2ccc(C(=O)NC3CCC(C)CC3)o2)cc1 (centres unmarked),-51%
4,CCC(=O)N1CCN(c2ccc(NC(=S)NC(=O)c3ccc(OC)c([N+](=O)[O-])c3)cc2)CC1,-15.7%
5,CCO[C@H]1OC(C(=O)N2CCOCC2)=C[C@@H](c2ccc(Br)cc2)[C@@H]1CCCO,-8.92%
6,Cl.O=C(c1cc2ccccc2o1)N1CCN(Cc2ccccc2)CC1,-32.6%
7,CS(=O)(=O)Nc1cccc(C(=O)CC2(O)C(=O)Nc3ccc(Br)cc32)c1 (centres unmarked),14.3%
8,CCOc1cc(/C=C/c2cccc[n+]2C)ccc1O.[I-],24.7%
9,O=C(CCNC(=O)c1ccco1)NCCN1C(=O)S/C(=C\c2ccc(F)cc2)C1=O,-9.54%
10,NS(=O)(=O)c1ccc(Nc2ccccc2)c([N+](=O)[O-])c1,-6.17%
11,Cc1c(-c2ccccc2)nc2ccccc2c1C(=O)O,2.56%
12,COCCn1c(-c2ccccc2)cc(C(=O)O)c1C,21.2%
13,CCC1=NNc2cccc3c(OC)ccc1c23,8.13%
14,CCCN1CNC(=S)N(c2cccc(C)c2C)C1,1.72%
15,COc1nccc(-c2ccc(F)cc2)c1C#N,-10.4%
16,CN(C)c1ccc(/C=C2/C(=O)NC(=O)N(CCc3ccc(F)cc3)C2=O)cc1,14.5%
17,O=C(CCSCc1cccc(F)c1)NCc1ccc(F)cc1,-22.3%
18,Clc1ccc2nc3ccccn3c2c1,-3.52%
19,CCOC(=O)C1CCN(C(C)=C2C(=O)c3ccccc3C2=O)CC1,-15.4%
20,CCc1ccc(C(=O)Nn2c(C)nc3ccccc3c2=O)cc1,-1.71%
21,CN(CC1COc2ccccc2O1)C(=O)c1cc(COc2c(F)cccc2F)on1 (centres unmarked),1.61%
22,Cc1c(C(=O)NCc2ccoc2)oc2ccc3c(c12)C(=O)CC(C)(C)O3,-11.7%
23,Cc1ccc(C)c(S(=O)(=O)N2CCN(C(=O)CCNS(=O)(=O)c3ccccc3)CC2)c1,-33.6%

row,Structure (SMILES),"hERG current change (%, negative = inhibition) at 10uM"
1,N#Cc1ccccc1S(=O)(=O)N1CCN(C(=O)Cc2coc3cc(O)ccc23)CC1,-24%
2,O=C(Nc1cccc2cccnc12)c1ccc(Cl)cc1Cl,24.4%
3,Cc1ccc(-n2nc(C)c(C(C)(O)C(F)(F)F)c2N)cc1 (centres unmarked),2.4%
4,COP(=O)(/C=C(\Cl)c1ccccc1)/C=C(\Cl)c1ccccc1,-9.32%
5,C=CCNc1oc(-c2ccc(OC)cc2)nc1C#N,6.02%
6,COc1ccc(S(=O)(=O)N2CCCCC2)cc1NC(=O)c1ccc2c(c1)OCO2,15.4%
7,COc1ccc(C(=O)N2CCN(c3ccccn3)CC2)cc1[N+](=O)[O-],-14.9%
8,O=c1cc(COc2ncnc3c(Cl)cc(Cl)cc23)nc2sccn12,-7.76%
9,CN(C(=O)c1ccc2c(=O)n3c(nc2c1)CCCCC3)c1ccccc1F,-21.9%
10,CCOC(=O)c1csc(-c2ccc([N+](=O)[O-])cc2)n1,-10.9%
11,CCC1COCCS(=O)(=O)N1Cc1ccccc1F (centres unmarked),-9.1%
12,CC(C)OCCCNC(=O)CCN1C(=O)COc2ccccc21,8.74%
13,CCCn1c(SCC(=O)c2cc(C)ccc2C)n[nH]c1=O,6.52%
14,CCC(=O)Nc1cccc(C2=NOC3(C2)C[C@@H](C(N)=O)N(C(=O)C(c2ccccc2)c2ccccc2)C3)c1 (some centres unmarked),-0.649%
15,CC(=O)Nc1ccc(S(=O)(=O)Nc2cccc(-c3cn4cccnc4n3)c2)cc1,22.1%
16,COC(=O)Nc1ccc(S(=O)(=O)N2CCCC(C(=O)O)C2)cc1 (centres unmarked),42.5%
17,Cc1ccc2nc(-c3cccc(N)c3)oc2c1,-4.21%
18,COc1cccc(CC(=O)N2CCN(c3ccccc3[N+](=O)[O-])CC2)c1,-21%
19,CCN(Cc1ccncc1)C(=O)c1ccc2c(c1)S(=O)(=O)c1ccccc1C2=O,-43.4%
20,CCCCNC(=S)Nc1ccc2cn[nH]c2c1,-1.62%
21,CCC1CCCCN1C(=O)COc1ccc(S(=O)(=O)N2CCOCC2)cc1Cl (centres unmarked),-7.78%
22,CCn1c(CNc2ccc(Cl)cc2)nnc1SCc1ccccc1,-24.6%
23,COc1cc(C2CC(=O)Oc3c2c(=O)n(C)c2ccccc32)ccc1O (centres unmarked),14.7%

row,Structure (SMILES),"hERG current change (%, negative = inhibition) at 10uM"
1,O=C(c1ccccc1)c1ccc(OC(=O)N2CCOCC2)cc1,-13.3%
2,CC1CCN(S(=O)(=O)c2nnc(NC(=O)c3ccccc3Br)s2)CC1,-7.76%
3,Cc1ccsc1C1NC(=O)c2ccccc2N1 (centres unmarked),5.58%
4,Cc1cccc(NC(=O)CNC(=O)COC(=O)c2ccc(C(C)(C)C)cc2)c1C,-11%
5,O=c1[nH][nH]cc1C=Nc1cc(Cl)ccc1O,-2.16%
6,COc1ccc(CC(=O)NCC2(N3CCCCC3)CCCCC2)cc1,-11.7%
7,COc1ccc(C2NC(=O)NC(O)(C(F)(F)F)C2C(=O)c2ccc(F)cc2)cc1 (centres unmarked),1.58%
8,Cc1ccc(Cc2nc(-c3ccccn3)no2)cc1,5.11%
9,C=CCOc1ccc(CNc2nn[nH]n2)cc1,22%
10,Cc1ccc(NC(=O)C2CCN(S(=O)(=O)c3cccc4cccnc34)CC2)nc1,-13.8%
11,CCCN1CCN(CCCNC(=O)CCN2C(=O)COc3ccccc32)CC1,4.18%
12,CSc1nc(C)cc(OCNC(=O)c2cccs2)n1,-0.623%
13,N#Cc1c(N)n[nH]c1CCCN,7.29%
14,CCCn1c(SCC(=O)Nc2ccc3c(c2)OCCO3)nnc1-c1ccco1,-66.1%
15,O=C1C2=C(SCCS2)C(=O)N1CCCO,4.66%
16,CN(C)CCN(Cc1ccco1)C(=O)c1oc2ccccc2c1NC(=O)COc1ccccc1,-88.7%
17,CCc1ccc(C(=O)NNC(=O)C2CC(=O)N(c3ccc4c(c3)OCCO4)C2)cc1 (centres unmarked),-7%
18,CCOc1ccc(C2CC(=O)NC2=O)cc1 (centres unmarked),6.09%
19,COCCN1C(=O)/C(=C/c2ccc(Oc3ccc([N+](=O)[O-])cn3)c(OC)c2)SC1=Nc1ccccc1,-4.34%
20,CCOc1ccc(N(CC(=O)NCc2ccccc2)C(=O)Cn2nnc(-c3ccc(C)o3)n2)cc1,-6.08%
